According to patent publication US9944700B2, “Notch2 binding molecules for treating respiratory diseases” (NOVARTIS AG, priority 2013, dated 2018):

System: Human airway basal cells grown in 3D
Experiment: IL-13-driven goblet cell metaplasia in 3D bronchospheres, qPCR of cell type markers
Type: cell-based
Description: Human bronchial epithelial (HBE) cells and culture media were obtained from Lonza. Air-liquid interface cultures using passage 2 (P2) cells were performed as previously described (Danahay, H. et al., American journal of physiology. Lung cellular and molecular physiology 282, L226-236 (2002)). For three-dimensional culturing of HBE cells, P1 cells were trypsinized and resuspended (30,000 cells/ml) in HBE differentiation media containing 5% growth factor-reduced Matrigel (BD Biosciences). 20 μl of suspension was plated in each well of a 384-well plate (Greiner) pre-coated with 10 μl of a 25% solution of Matrigel (BD Biosciences) in HBE differentiation media. Wells were fed or treated at day 2 and day 8 of culture by adding 30 μl of differentiation media containing the appropriate treatment. Three-dimensional cultures were analyzed at the time points indicated.
RNA was isolated from 3D bronchosphere cultures with Trizol (Invitrogen), using manufacturer's specifications. […] Quantitative PCR was performed on a ViiA7 Real-Time PCR System (Applied Biosystems), using 40 ng of cDNA per reaction with the following Taqman probes (Applied Biosystems): MUC5AC, Hs01365601_m1; MUC5B, Hs00861588_m1; FOXA3, Hs00270130_m1; FOXJ1, Hs00230964_m1; DNAI2, Hs01001544_m1; TP63, Hs00978340_m1; ITGA6, Hs01041011_m1; GAPDH, Hs99999905_m1; Muc5ac, Mm012718_m1; Foxj1, Mm012367279_m1; Trp63, Mm00495788_m1; Gapdh, Mm99999915_g1.
In order to understand if neutralizing Notch2 could prevent goblet cell metaplasia, a hallmark of several airway diseases including asthma, cystic fibrosis, and COPD, anti-Notch2 antibodies were tested for their effect on IL-13-driven goblet cell metaplasia in 3D bronchospheres. Human airway basal cells were grown in 3D in the presence of vehicle control or IgG, with or without 1 ng/ml IL-13, or increasing concentrations of α-N2 D3 or 59R5 antibodies together with 1 ng/ml of IL-13, and analyzed by qPCR for the expression levels of the indicated goblet cell markers (FIG. 5a), ciliated cell markers (FIG. 5b), and basal cell markers (FIG. 5c).

B1: D3: anti-Notch2 antagonist IgG1 antibody, heavy chain SEQ ID NO: 3 (N-terminal glutamine), light chain SEQ ID NO: 4; sole antibody in therapeutic models (antibody)
heavy: QVQLVESGGGLVQPGGSLRLSCAAGYTFSSYGMSWVRQAPGKGLEWVSYIYPYSGATYYADSVKGRFTISADTSKNTAYLQMNSLRAEDTAVYYCARHSGYYRISSAMDVWGQGTLVTVSSASTKGPSVFPLAPSSKSTSGGTAALGCLVKDYFPEPVTVSWNSGALTSGVHTFPAVLQSSGLYSLSSVVTVPSSSLGTQTYICNVNHKPSNTKVDKRV[not shown - human IgG1 Fc]
light: DIQMTQSPSSLSASVGDRVTITCRASQNIKRFLAWYQQKPGKAPKLLIYGASTRESGVPSRFSGSGSGTDFTLTISSLQPEDFATYYCQQYYRSPHTFGQGTKVEIKRTVAAPSVFIFPPSDEQLKSGTASVVCLLNNFYPREAKVQWKVDNALQSGNSQESVTEQDSKDSTYSLSSTLTLSKADYEKHKVYACEVTHQGLSSPVTKSFNRGEC
modifications: Synthetic human sequence
- IL-13-driven goblet cell metaplasia (expression of goblet cell markers MUC5AC, MUC5B and FOX3A) (1 ng/ml IL-13, increasing antibody concentrations, qPCR, FIG. 5a): completely inhibited
- ciliated cells function (expression of ciliated cell markers FOXJ1 and DNAI2) (1 ng/ml IL-13, qPCR, FIG. 5b): partially restored
- effect on basal cells markers p63 and ITGA6 (1 ng/ml IL-13, qPCR, FIG. 5c): No effect
